Data on one molecule can be found in US20150337037A1 (MSM PROTEIN TECHNOLOGIES, published 2015).

The term EC50 denotes the concentration giving half of the maximal effect.

The target of assay [1] is T1, human chemokine receptor CCR6 (human, UniProt P51684 1-374).
T1 construct: whole, on cells; gene was synthesized (codon-optimized); a C-terminal tag may be present on the expressed protein; also called CCR6 human; human CCR6
T1 sequence (looked up): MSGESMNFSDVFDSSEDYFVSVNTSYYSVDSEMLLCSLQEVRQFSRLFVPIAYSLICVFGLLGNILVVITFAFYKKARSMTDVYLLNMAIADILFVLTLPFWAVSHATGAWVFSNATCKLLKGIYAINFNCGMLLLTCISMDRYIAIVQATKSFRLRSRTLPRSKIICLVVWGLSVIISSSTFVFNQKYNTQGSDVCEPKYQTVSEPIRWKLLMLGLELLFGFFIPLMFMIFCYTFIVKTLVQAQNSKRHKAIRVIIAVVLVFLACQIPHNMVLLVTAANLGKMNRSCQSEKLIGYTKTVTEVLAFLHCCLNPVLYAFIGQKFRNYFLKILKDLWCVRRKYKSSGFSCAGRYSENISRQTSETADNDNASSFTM
The assay is described as follows: flow cytometry on cells expressing the target, IgG1 titration, anti-human Fc-PE.

For assay [2], the target named is T2, cynomolgus monkey CCR6 (cynomolgus monkey (Macaca Fascicularis)).
T2 construct: whole, on cells; gene derived from a total RNA library; also called CCR6 cyno; cyno CCR6
The description is as above.

The target of assay [3] is T3, mouse CCR6 (mouse, UniProt O54689 1-367).
T3 construct: whole, on cells; gene derived from a cDNA library; also called CCR6 mouse
T3 sequence (looked up): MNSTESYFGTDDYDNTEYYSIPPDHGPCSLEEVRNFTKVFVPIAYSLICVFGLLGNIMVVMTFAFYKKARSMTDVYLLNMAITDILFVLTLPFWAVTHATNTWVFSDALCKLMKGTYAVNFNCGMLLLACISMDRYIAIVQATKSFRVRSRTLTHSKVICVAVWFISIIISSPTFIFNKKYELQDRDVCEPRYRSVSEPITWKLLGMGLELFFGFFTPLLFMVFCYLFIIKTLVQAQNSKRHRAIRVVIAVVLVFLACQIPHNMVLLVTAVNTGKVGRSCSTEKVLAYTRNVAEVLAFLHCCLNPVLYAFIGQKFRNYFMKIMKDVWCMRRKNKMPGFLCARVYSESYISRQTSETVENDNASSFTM
The assay is described as above.

The target in assay [4] is T1, human chemokine receptor CCR6. The experiment in a line: flow cytometry on cells expressing the target, IgG1 titration (repeat of Table 2). (In flow cytometry, cells or beads pass a laser one at a time.)
Assay [5] deals with T2, cynomolgus monkey CCR6. The description is as above.
In assay [6] the target is T3, mouse CCR6. The description is as above.

B1: MSM-R623 IgG1 (antibody)
heavy: EVQLLESGGGLVQPGGSLRLSCAASGFTFSNYYIHWVRQAPGKGLEWVSTIGSSNGTTYYADSVKGRFTISRDNSKNTLYLQMNSLRAEDTAVYYCARGRAVKLAYYSGFDYWGQGTLVTVSSASTKGPSVFPLAPSSKSTSGGTAALGCLVKDYFPEPVTVSWNSGALTSGVHTFPAVLQSSGLYSLSSVVTVPSSSLGTQTYICNVNHKPSNTKVDKRV[sequence of human IgG1 Fc not given]
light: [sequence of about 100 residues not given][sequence of about 120 residues not given]
notes: Fully human IgG1
For B1, the EC50 in assay [1] stood at 2.8 nM; with cynomolgus monkey CCR6 [2], 3.2 nM; with mouse CCR6 [3], 1.8 nM; in assay [4], 2.8 nM; in the assay with cynomolgus monkey CCR6 [5] it was 3.2 nM; with mouse CCR6 [6], 1.8 nM.
